These results are taken from ChEMBL document CHEMBL5308541, “MAIP: An Open-Source Tool to Enrich High-Throughput Screening Output and Identify Novel, Druglike Molecules with Antimalarial Activity” (ACS Med Chem Lett, 2023).

In all, about 4,800 compounds went through this assay and about 410 (8.5%) showed an effect of 50% or more. The list shows a part of the results.

In the assay the test system is Plasmodium falciparum. Description: Confirmatory screen in NF54 pLDH assay, in single point, at 2uM, 72h. Format: functional, Erythrocyte. As to conditions: timepoint 72 hour.
Take `Cc1cc(F)ccc1N1CCC(NCCCNc2cccnc2)CC1`: the “% Inhibition” value is -2%.
Turning to `c1ccc(-c2ccnc(C3CCN(CC45CNCC4C5)CC3)n2)cc1` (stereo not given), the “% Inhibition” value stood at 96%.
In the case of `Nc1nc(NCC2CCN(CCc3ccccc3)CC2)cc([C@H]2C[C@@H](N)C2)n1`, the “% Inhibition” value is reported as 26%.
Next, `CN([C@@H](c1ccccc1)c1ccccc1Br)S(=O)(=O)c1c[nH]c2ncccc12`: 67%; `O[C@@H](CNCc1cc2cc(Cl)c(Cl)cc2[nH]1)c1ccc(F)cc1`: 80%; `CCN1CCN(c2ccc(CNCc3cccc(O)c3)cc2F)CC1`: 85%.
`FC(F)(F)c1ccc(-c2c(-c3ccccc3)ncn2Cc2ncn[nH]2)cc1`: the “% Inhibition” value was determined as 7%.
Regarding `CN1CCC(N2CCC(NC(=O)c3ccc(S(=O)(=O)N(C)C4CCCCC4)cc3)CC2)CC1`, the “% Inhibition” value is listed as 39%.
For the molecule `c1ccc(-c2nc3c(c(NCCNc4ncccn4)n2)CCC3)nc1`, the “% Inhibition” value turned out to be 23%.
As for `COc1ccc(-c2cncc(C(=O)NCC3CCN(CCN(C)C)CC3)c2)cc1`, the “% Inhibition” value is recorded as 96%.
With `Cc1cccc(Nc2ccnc(Nc3ccc(N4CCN(C)CC4)cc3)n2)c1`, the “% Inhibition” value was 99%.
Take `CCOc1cccc(N2CCN(C(=O)c3cc(-c4ccc(F)cc4)[nH]n3)CC2)n1`: the “% Inhibition” value was -1%.
Next, `COCCNc1nc(N[C@@H](C)c2ccccc2)c2ccccc2n1`: 92%.
As for `Cc1ccc2[nH]c(CNC[C@@H](CO)C3CCC3)cc2c1C`, the “% Inhibition” value was found to be 80%.
For the molecule `O=C(NCCN1CCCCC1)c1cccc(-c2cnc3ccc(F)cn23)c1`, the “% Inhibition” value turned out to be 21%.
Consider `O=C(CC1CCNCC1F)Nc1ccc(Oc2ccnc3ccccc23)cc1` (stereo not given), for which the “% Inhibition” value stood at 12%.
As to `Cc1cc(NC[C@H](O)COc2ccc(F)cc2)nc2ccccc12`, the “% Inhibition” value was found to be 81%.
For the molecule `c1ccc(CCC23CN(Cc4ccccn4)CC2CN(Cc2ccns2)C3)cc1` (stereo not given), the “% Inhibition” value is 88%.
In the case of `Cc1cc(NCCCN2CCC[C@H](O)C2)c2cc(F)ccc2n1`, the “% Inhibition” value is on record as 31%.
For `Cc1ccccc1-c1cccc(CNCCCN2CCC[C@H](O)C2)c1`, the “% Inhibition” value came to 17%.
On to `COCCN1CC[C@H](CNC2CCN(c3ncc4ccc(F)cc4n3)CC2)C1`, for which the “% Inhibition” value was determined as 71%.
For the molecule `O[C@H](COc1ccccc1CNCc1cc(-c2ccccc2)[nH]n1)CN1CCCCC1`, the “% Inhibition” value worked out at 103%.
The value for `OC1CN(Cc2cnc(C3CCCCC3)nc2)CCC1Nc1ncccn1` (stereo not given) was 4%.
For `Cc1ccc2[nH]c(-c3cc4n(n3)CCN(c3ccnc(N)n3)C4)nc2c1C`, the “% Inhibition” value is listed as 97%.
Consider `CNc1nc(N[C@H]2CCCN(Cc3ccc(Cl)cc3)C2)nc2c1CCC2`, for which the “% Inhibition” value is 100%.
For the molecule `CC1(N2CCC2)CCC(NC[C@H]2CCN(Cc3ccccc3)C2)CC1` (stereo not given in full), the “% Inhibition” value was 66%.
For `CN1C(C)(C)CC(NC(=O)c2ccc(-c3cc(-c4cccc(C(F)(F)F)c4)n[nH]3)cc2)CC1(C)C`, the “% Inhibition” value amounted to 47%.
The value for `O=C(NCc1ccc(OC(F)(F)F)cc1)N(CCN1CCCC1)[C@H]1CCCNC1` was 33%; that for `O=C(NCc1ccc(N2CCNCC2)c(F)c1)c1ccc(-c2noc(C(F)(F)F)n2)cc1` was 54%.
The value for `CCN1CCC[C@H](CN(C)C2CCN(c3ccc(NC(=O)c4ccc(OC)cc4)cc3)CC2)C1` was 0%; that for `Cc1ccccc1CN1CCC(CNc2c3c(nc4ccccc24)CCC3)CC1` was 103%.
Turning to `CC(CNc1nc(NCC(C)N2CCOCC2)c2cc(Cl)ccc2n1)N1CCOCC1` (stereo not given), the “% Inhibition” value came to 102%.
Next, `CN1CCN(CC2CCN(c3ccnc4ccccc34)CC2)CC1`: 103%.
The value for `Cc1ccc2c(-c3ccccc3CN3CCNCC3)cccc2n1` was 45%; that for `CCc1ccc2ncnc(NCCCN3CCN(CCO)CC3)c2c1` was 85%; that for `Cn1cncc1[C@@H]1CNC[C@H]1CNC(=O)c1ccccc1NC1CCCCC1` was 73%.
The value for `CN(C)Cc1cccc(CCNCc2csc(-c3ccc(C(F)(F)F)cc3)n2)c1` was 88%; that for `CCCC(=O)NC1COCC1Cc1ccncc1` (stereo not given) was 86%; that for `O=C(NCCNc1ccnc2ccncc12)c1ccc(C(F)(F)F)cc1` was 43%.
Consider `CN1CCN(CCOc2ccccc2CN(C)Cc2cc3cc(F)ccc3[nH]2)CC1`, for which the “% Inhibition” value amounted to 104%.
Next, `N#Cc1cccc(Cl)c1N1CCC(N2CCCC2)CC1`: 38%; `CCOc1ccc2nc(N3CCC(N4CCC([C@H](O)c5cccnc5)CC4)CC3)nc(C)c2c1`: 8%; `CCN1C[C@H](Nc2nc(C)nc3sccc23)[C@@H](OC)C1`: 101%.
Next, `O[C@H]1CCN(Cc2ccccc2CNc2cccc(-n3ccnc3)n2)C1`: 101%.
The value for `Cc1cnccc1NCCNCc1cnc(N2CCCCC2)nc1` was 62%.
`OCCCNc1nn2cc(-c3ccc(F)cc3)nc2s1`: the “% Inhibition” value is -2%.
Take `CN1CCN(CCc2ccc(N[C@H]3CCCN(Cc4ccccc4)C3(C)C)cc2)CC1`: the “% Inhibition” value is 16%.
Consider `Cc1cc(N2CCC(NCCCN3CCCc4ccccc43)CC2)nc(N)n1`, for which the “% Inhibition” value was determined as 88%.
For the molecule `O=C(n1nnc2cc(Cl)c(Cl)cc21)C(F)(F)F`, the “% Inhibition” value was determined as 39%.
On to `C[C@H](Nc1nc(N)c2ccccc2n1)c1cccc(-n2cncn2)c1`, for which the “% Inhibition” value came to 29%.
The value for `Clc1cccc(N2CC[C@H](CNC3CCN(Cc4ccco4)CC3)C2)c1` was 97%.
The value for `COC(CN(Cc1nc(N)nc(Nc2ccc(C)cc2)n1)Cc1nc(N)nc(Nc2ccc(C)cc2)n1)OC` was 94%; that for `CN1CCN(CCCCNC2CC3CCC(C2)N3Cc2ccccc2)CC1` (stereo not given) was 41%.
Consider `c1ccc2c(Nc3ccc4[nH]cnc4c3)c3ccccc3nc2c1`, for which the “% Inhibition” value was found to be 102%.
In the case of `CC(C)c1ccc(-c2nc(CN3CCCCC3)cc(CN3CCCCC3)c2O)cc1`, the “% Inhibition” value is reported as 92%.
As for `CC1CN(c2ccccc2NC(=O)c2ccc(-c3cnco3)cc2)CC(C)O1` (stereo not given), the “% Inhibition” value is reported as -13%.
With `CCN(Cc1cnn(-c2cccc(Cl)c2)c1)CC1CCN(C2CCN(C)CC2)CC1`, the “% Inhibition” value was 92%.
The value for `COCCCN1CCC(Nc2ncnc3cc(C)c(C)cc23)CC1` was 94%; that for `CN1CCC[C@H](CN2CCN(Cc3cc4n(n3)CCCNC4)CC2)C1` was -7%; that for `COc1cc2nc(-c3ccc(F)c4cccnc34)nc(N)c2cc1OC` was 102%.
Consider `COc1ccc2nc(C)cc(NCc3cccc(NC(=O)c4ccco4)c3)c2c1`, for which the “% Inhibition” value was determined as 105%.
With `CCN1CCN(C[C@@H](C)CNCc2cc(-c3ccccc3)ccc2OC)CC1`, the “% Inhibition” value is reported as -4%.
As for `CCCc1cccc(CNC2CCN(C3CCN(C)CC3)CC2)c1`, the “% Inhibition” value was determined as 71%.
With `COCCN1CC[C@H](CN(C)c2ccnc3cc(Cl)ccc23)C1`, the “% Inhibition” value stood at 102%.
For the molecule `Cc1cc(C)c(-c2csc(Nc3ncnc4[nH]ncc34)n2)cc1C`, the “% Inhibition” value is reported as -5%.

A word on the % Inhibition: it is the relative decrease from the control value, in per cent.
